# Measurements taken from the BET-seq Pho4 binding data (Le et al. 2018).
# The list shows a part of the results. Values were computed here from the reads of four pooled replicates and scatter widely.
# Target: T1, Pho4 (S. cerevisiae) (UniProt P07270)
# T1 sequence: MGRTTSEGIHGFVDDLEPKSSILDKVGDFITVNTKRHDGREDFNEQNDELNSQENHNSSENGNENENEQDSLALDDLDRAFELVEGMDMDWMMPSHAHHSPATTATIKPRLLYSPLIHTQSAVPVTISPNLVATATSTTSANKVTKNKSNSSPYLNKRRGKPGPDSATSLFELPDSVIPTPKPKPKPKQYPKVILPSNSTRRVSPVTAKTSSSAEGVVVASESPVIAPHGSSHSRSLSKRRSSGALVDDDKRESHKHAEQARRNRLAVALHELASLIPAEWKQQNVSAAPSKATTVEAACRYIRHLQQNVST
# Assay: relative binding free energy (BET-seq); higher = weaker binding
# Details: reference: library average
row,Sequence,relative binding free energy
1,TGCGTCACGTGCGTGG,0 kcal/mol
2,TAGAGCACGTGTTGAA,-0.13 kcal/mol
3,AAGGCCACGTGGTTAT,-0.08 kcal/mol
4,GGTTGCACGTGAGATG,0.28 kcal/mol
5,ATATGCACGTGATTGT,0.07 kcal/mol
6,ATAAGCACGTGGGCAG,-0.19 kcal/mol
7,TTTATCACGTGGGACG,0.21 kcal/mol
8,AAATGCACGTGGTCGG,-0.04 kcal/mol
9,TTCGGCACGTGGGTGG,-0.25 kcal/mol
10,TTTAGCACGTGGGTTC,-0.09 kcal/mol
11,TTAGTCACGTGATTAG,0.21 kcal/mol
12,TTATACACGTGTCTAG,0.11 kcal/mol
13,GTTTTCACGTGGTAGG,0.27 kcal/mol
14,TTTGTCACGTGATAGC,0.24 kcal/mol
15,CCATGCACGTGGTAGG,0.05 kcal/mol
16,AAGGTCACGTGTGTTT,0.25 kcal/mol
17,GGTAACACGTGTTGGG,0.05 kcal/mol
18,AGGGCCACGTGTTTGT,-0.15 kcal/mol
19,TGTTGCACGTGGTTCC,-0.08 kcal/mol
20,AACTGCACGTGTATGG,-0.01 kcal/mol
21,TTGCGCACGTGGAGGC,0.07 kcal/mol
22,AGTATCACGTGAGTTA,0.32 kcal/mol
23,TTTAGCACGTGTGAGC,0 kcal/mol
24,GGTCGCACGTGGGTAT,-0.18 kcal/mol
25,ACAATCACGTGTGTGG,0.15 kcal/mol
26,TGAGGCACGTGAGCAT,0.08 kcal/mol

row,Sequence,relative binding free energy
1,GGTTTCACGTGGTGTA,0.27 kcal/mol
2,TGTATCACGTGGGTAG,-0.04 kcal/mol
3,GGTAACACGTGTTCTG,0.13 kcal/mol
4,ATGGGCACGTGCTCTG,-0.12 kcal/mol
5,ACGATCACGTGGTGTT,0.03 kcal/mol
6,GTTGTCACGTGTACTC,0.28 kcal/mol
7,TTGTTCACGTGGGCCA,0.27 kcal/mol
8,GTTTTCACGTGCACTT,0.2 kcal/mol
9,GACAGCACGTGGTTGT,-0.09 kcal/mol
10,TGGATCACGTGCCGGT,0 kcal/mol
11,GATCACACGTGTGTGG,0.09 kcal/mol
12,GGCGACACGTGATGGT,0.29 kcal/mol
13,AGGGGCACGTGGCTGC,-0.18 kcal/mol
14,TGATGCACGTGGGATC,-0.01 kcal/mol
15,TTTTTCACGTGCGGAG,0.37 kcal/mol
16,GGCAGCACGTGGCGGC,-0.07 kcal/mol
17,TCATACACGTGAGGTG,0.1 kcal/mol
18,CTGGGCACGTGTTGAG,-0.1 kcal/mol
19,AGGGACACGTGGTGAC,-0.01 kcal/mol
20,AATATCACGTGATTAT,0.28 kcal/mol
21,TAGTGCACGTGTTAGC,0 kcal/mol
22,TTGTTCACGTGAGTGC,0.34 kcal/mol
23,GTGGTCACGTGCGATT,0.24 kcal/mol
24,AGGGCCACGTGGGGGG,-0.24 kcal/mol
25,TTGGGCACGTGAATGT,0.18 kcal/mol
26,GAATTCACGTGGTAGG,0.49 kcal/mol

row,Sequence,relative binding free energy
1,TGAATCACGTGCGGGC,0.34 kcal/mol
2,TACGTCACGTGTGAGG,-0.04 kcal/mol
3,AAAGTCACGTGAAAGT,0.35 kcal/mol
4,CGGTTCACGTGGATTT,0.43 kcal/mol
5,TACTGCACGTGCGGTG,-0.18 kcal/mol
6,TAGGTCACGTGGAGCG,0.18 kcal/mol
7,GCGGGCACGTGGTTAA,0.03 kcal/mol
8,GAGCTCACGTGGGGAG,0.25 kcal/mol
9,ATATACACGTGTCGTG,-0.05 kcal/mol
10,TGTTACACGTGGTGGA,0.07 kcal/mol
11,TGGTGCACGTGGCGAG,-0.1 kcal/mol
12,GACGGCACGTGTGTAG,0.04 kcal/mol
13,ACGTGCACGTGTGGTC,-0.01 kcal/mol
14,TGACTCACGTGGGGCT,0.04 kcal/mol
15,TGATACACGTGGAGTT,0.08 kcal/mol
16,TGATTCACGTGTGAAT,0.24 kcal/mol
17,GTGTTCACGTGGACAG,0.29 kcal/mol
18,TTGTTCACGTGGTCGA,0.3 kcal/mol
19,AGGGTCACGTGATTAA,0.14 kcal/mol
20,GTGATCACGTGTGGCC,0.25 kcal/mol
21,CAGGGCACGTGTGGTG,-0.08 kcal/mol
22,GTCAGCACGTGTTGGA,0.11 kcal/mol
23,ACGGGCACGTGGGTGC,-0.11 kcal/mol
24,CGTTTCACGTGATGAG,0.37 kcal/mol
25,CAGGTCACGTGGGCTG,0 kcal/mol
26,GTATACACGTGGGGGT,-0.09 kcal/mol

row,Sequence,relative binding free energy
1,CGCGGCACGTGTGTTT,-0.14 kcal/mol
2,GGCGGCACGTGGCTGT,-0.19 kcal/mol
3,TTACACACGTGGTGGA,-0.07 kcal/mol
4,AGATACACGTGGTCTT,0.03 kcal/mol
5,GTCGTCACGTGGATTT,0.04 kcal/mol
6,TAGTCCACGTGATTTG,0.11 kcal/mol
7,CTTAGCACGTGGGCGG,-0.32 kcal/mol
8,TGTATCACGTGTTCAG,0.13 kcal/mol
9,TTCCTCACGTGTTGTT,0.12 kcal/mol
10,GACGTCACGTGATTTG,0.47 kcal/mol
11,GTGTTCACGTGTAACG,0.31 kcal/mol
12,TTTAACACGTGTGTGT,-0.03 kcal/mol
13,CGGTGCACGTGTAAGT,0.2 kcal/mol
14,AGTTGCACGTGGACCG,0.07 kcal/mol
15,GATGGCACGTGGGGGT,-0.13 kcal/mol
16,GGGGGCACGTGATGTG,0 kcal/mol
17,CCGGACACGTGGGTGG,-0.03 kcal/mol
18,TTATCCACGTGGGCGT,-0.05 kcal/mol
19,AAAGTCACGTGTTTTT,0.14 kcal/mol
20,AATGCCACGTGGTGTA,-0.18 kcal/mol
21,TTCGGCACGTGGGGGC,-0.23 kcal/mol
22,TGTAGCACGTGGGAGC,-0.14 kcal/mol
23,GATGTCACGTGTAATG,0.14 kcal/mol
24,GTATGCACGTGTGAGT,0.08 kcal/mol
25,TTTTCCACGTGATTAT,0.06 kcal/mol
26,TCTTGCACGTGGGTAG,-0.06 kcal/mol

row,Sequence,relative binding free energy
1,GGCGGCACGTGTTCGG,0.05 kcal/mol
2,ATTAACACGTGGGTGC,-0.16 kcal/mol
3,TCAATCACGTGTATAT,0.2 kcal/mol
4,AGATGCACGTGGTGTC,-0.06 kcal/mol
5,TGATACACGTGGATTT,0.17 kcal/mol
6,CTTAACACGTGGCGTG,-0.06 kcal/mol
7,GCGTGCACGTGGCCGG,-0.13 kcal/mol
8,TAGTTCACGTGGCGGG,0.18 kcal/mol
9,ATGTACACGTGGCGGG,0 kcal/mol
10,GGAAGCACGTGGGTCA,-0.2 kcal/mol
11,ATCGGCACGTGGTTGA,-0.22 kcal/mol
12,ATCAGCACGTGAGGGT,0.07 kcal/mol
13,AGGGTCACGTGAGATA,0.39 kcal/mol
14,GATTGCACGTGCGGGT,-0.04 kcal/mol
15,GGATGCACGTGAGATA,0.21 kcal/mol
16,TTCTACACGTGAGGGT,0.24 kcal/mol
17,GGGAGCACGTGGTATA,-0.25 kcal/mol
18,AGTGTCACGTGATGTG,0.2 kcal/mol
19,AGGGACACGTGGACGG,0.11 kcal/mol
20,GCGAGCACGTGTGGGG,-0.09 kcal/mol
21,AGCATCACGTGTGTTT,0.15 kcal/mol
22,TTGCGCACGTGGTTTA,-0.16 kcal/mol
23,ATGGTCACGTGTTTTT,0.17 kcal/mol
24,CGTTGCACGTGGTAGT,-0.17 kcal/mol
25,GTGAGCACGTGCATGG,-0.22 kcal/mol
26,CTTGTCACGTGTGAAA,0.21 kcal/mol

row,Sequence,relative binding free energy
1,GTGCGCACGTGTGTTA,-0.15 kcal/mol
2,CTTAGCACGTGTAGGT,-0.09 kcal/mol
3,TGCGACACGTGGGGGG,-0.19 kcal/mol
4,ATACTCACGTGTTAGG,0.34 kcal/mol
5,ATCGGCACGTGTTGCG,-0.15 kcal/mol
6,TTACTCACGTGTAAGT,0.15 kcal/mol
7,AATTTCACGTGGGTGT,0.22 kcal/mol
8,GTGTGCACGTGGGTCC,-0.13 kcal/mol
9,GACAGCACGTGAGTGG,0.25 kcal/mol
10,TGAGGCACGTGGACGC,-0.1 kcal/mol
11,TTCGACACGTGGGCGG,-0.15 kcal/mol
12,CTAGGCACGTGTTGGA,-0.18 kcal/mol
13,GTAGGCACGTGATATG,0.06 kcal/mol
14,TTATTCACGTGTCGCT,0.21 kcal/mol
15,ATGTGCACGTGTGTGG,0 kcal/mol
16,TGGAGCACGTGTGCCA,0.06 kcal/mol
17,GGGGTCACGTGCAGTT,0.17 kcal/mol
18,TGCAACACGTGAGGGG,0.13 kcal/mol
19,TTATTCACGTGGGGTA,0.07 kcal/mol
20,CTGAGCACGTGTGGTT,-0.17 kcal/mol
21,TTATACACGTGAAGGG,0.31 kcal/mol
22,TTAAGCACGTGTAGAT,0.1 kcal/mol
23,AGTGCCACGTGGTATG,-0.08 kcal/mol
24,GTGTGCACGTGTTCGA,0.05 kcal/mol
25,GGATTCACGTGTACGG,0.3 kcal/mol
26,AAATGCACGTGTTGTA,-0.01 kcal/mol

row,Sequence,relative binding free energy
1,GTTTTCACGTGTGTAG,0.32 kcal/mol
2,TAGTGCACGTGAGCTG,0.12 kcal/mol
3,ACGGACACGTGGTATG,-0.09 kcal/mol
4,GGTGGCACGTGGCGAT,-0.22 kcal/mol
5,TTGGACACGTGTGCGT,0.03 kcal/mol
6,TTTAACACGTGAATTG,0.25 kcal/mol
7,AGTTTCACGTGGAAAT,0.23 kcal/mol
8,CTTGACACGTGTGGCT,0 kcal/mol
9,TGCGCCACGTGGGGGA,-0.21 kcal/mol
10,TCGTGCACGTGAAAGG,0.24 kcal/mol
11,TGCATCACGTGGTGAT,0.07 kcal/mol
12,GTTAACACGTGAGATG,0.31 kcal/mol
13,GGGTACACGTGCTGTA,-0.03 kcal/mol
14,GAGGGCACGTGTCGTA,-0.04 kcal/mol
15,GCGAACACGTGTGGTG,0.1 kcal/mol
16,GTTTCCACGTGTTTGG,0.06 kcal/mol
17,CTTGCCACGTGGGTGT,-0.31 kcal/mol
18,TTAAGCACGTGGGCAG,-0.29 kcal/mol
19,GGAGTCACGTGAGGGT,0.29 kcal/mol
20,CGTTTCACGTGGGCCG,0.24 kcal/mol
21,ATGTCCACGTGAGATG,0.29 kcal/mol
22,CAATGCACGTGTTTTG,-0.03 kcal/mol
23,TATGACACGTGTGGTT,0.11 kcal/mol
24,TGCGGCACGTGACAGG,0.07 kcal/mol
25,TCTAGCACGTGAAGGG,0.24 kcal/mol
26,CGTTTCACGTGACTTT,0.35 kcal/mol

row,Sequence,relative binding free energy
1,CTGACCACGTGGTGTT,0 kcal/mol
2,ATAATCACGTGATGGG,0.28 kcal/mol
3,TTGAGCACGTGAGGTT,0.24 kcal/mol
4,AGGGGCACGTGTGTCC,-0.15 kcal/mol
5,GGAGGCACGTGCAAGT,-0.05 kcal/mol
6,CTTGCCACGTGGAGGG,-0.12 kcal/mol
7,TATATCACGTGGAGTT,0.1 kcal/mol
8,TCTGACACGTGGGTTG,-0.1 kcal/mol
9,TGCTGCACGTGGTGGC,-0.09 kcal/mol
10,TATATCACGTGAGATG,0.41 kcal/mol
11,TTAGACACGTGGTTCT,0.07 kcal/mol
12,CTGGACACGTGTTAGT,0.02 kcal/mol
13,AAACGCACGTGGTAGT,-0.12 kcal/mol
14,TTTTACACGTGTATGA,0 kcal/mol
15,GGTGGCACGTGAGCTG,0.08 kcal/mol
16,TGTTGCACGTGTTCGA,-0.16 kcal/mol
17,CAGTTCACGTGAAGGT,0.32 kcal/mol
18,ATGGTCACGTGCAAGA,0.1 kcal/mol
19,TTCTCCACGTGGGTGT,-0.13 kcal/mol
20,ATCTGCACGTGGAGGA,0.1 kcal/mol
21,CTATGCACGTGGGGGA,-0.26 kcal/mol
22,TGACGCACGTGTTATG,-0.1 kcal/mol
23,TGCTTCACGTGGTAGA,0.36 kcal/mol
24,TATGACACGTGTGTGC,0.08 kcal/mol
25,AGGTTCACGTGAAAGG,0.27 kcal/mol
26,GGTTGCACGTGTAGTA,0.12 kcal/mol

row,Sequence,relative binding free energy
1,GATAGCACGTGGTAAG,-0.08 kcal/mol
2,CCATTCACGTGTGGGT,0.24 kcal/mol
3,CGGTGCACGTGCTAGG,-0.07 kcal/mol
4,GGCGTCACGTGGGTGA,-0.04 kcal/mol
5,GGCACCACGTGGGGTG,-0.24 kcal/mol
6,TTGGACACGTGCTTTT,0.04 kcal/mol
7,AATATCACGTGATTTT,0.26 kcal/mol
8,GTCTGCACGTGGGTGG,-0.1 kcal/mol
9,ATACTCACGTGTTATT,0.22 kcal/mol
10,GGGGGCACGTGAGTCA,0 kcal/mol
11,AGGGTCACGTGGTGTG,0.03 kcal/mol
12,TTTTTCACGTGTCGCA,0.3 kcal/mol
13,AATTCCACGTGGGTGG,-0.06 kcal/mol
14,TGGATCACGTGAGCTG,0.33 kcal/mol
15,AGTTCCACGTGCGGGT,-0.01 kcal/mol
16,AGAATCACGTGGGGAA,0.02 kcal/mol
17,CGTATCACGTGGTAGA,0.15 kcal/mol
18,TTGTACACGTGCGATT,0.06 kcal/mol
19,GGAAGCACGTGCGAGG,-0.16 kcal/mol
20,AATATCACGTGAAGTT,0.38 kcal/mol
21,TTCTTCACGTGGGTAT,0.16 kcal/mol
22,GGATGCACGTGGTTGA,-0.1 kcal/mol
